According to the supplement of paper PMC10369915:
The other results are listed elsewhere or left out. Rule as the data show it: active = 3.2 or more and inactive = the rest. Only a few entries rise above the background.

Experiments:
Test in all cases: enrichment score (SH2-bound / input frequency) (ratio); bacterial display of known human phosphotyrosine sites (pTyr-Var adds point mutants) read by sequencing; higher = stronger binding; tyrosines were phosphorylated by kinases first
Settings in all cases: peptide library: pTyr-Var
[1] = target: SHP2 C-SH2 domain E139D
[2] = target: SHP2 C-SH2 domain wild-type
[3] = target: SHP2 N-SH2 domain L43F
[4] = target: SHP2 N-SH2 domain T42A
[5] = target: SHP2 N-SH2 domain T52S
[6] = target: SHP2 N-SH2 domain wild-type

Measured: enrichment score
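Also: displayed peptides selected on beads carrying the immobilized SH2 domain, with library peptides lacking any tyrosine serving as negative controls.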

B1: ACTN4_Y260_T259I_YF (peptide)
chain: KAIMIYVSSFF
inactive: [1] 1.52 | [2] 1.32 | [3] 1.38 | [4] 1.26 | [5] 1.42 | [6] 1.36

B2: ACTN4_Y260_YF (peptide)
chain: KAIMTYVSSFF
inactive: [1] 0.791 | [2] 0.721 | [3] 0.714 | [4] 0.624 | [5] 1.08 | [6] 0.687

B3: ACTN4_Y265_S262P (peptide)
chain: YVPSFYHAFSG
inactive: [1] 1.17 | [2] 1.18 | [3] 1.23 | [4] 1.2 | [5] 1.38 | [6] 1.09

B4: ACTN4_Y265_S262P_YF (peptide)
chain: FVPSFYHAFSG
inactive: [1] 1.46 | [2] 1.71 | [3] 1.35 | [4] 1.58 | [5] 1.62 | [6] 1.4

B5: ACTN4_Y265_YF (peptide)
chain: FVSSFYHAFSG
inactive: [1] 2.57 | [2] 2.4 | [3] 2.29 | [4] 2.36 | [5] 2.29 | [6] 2.17

B6: ACVRL1_Y375 (peptide)
chain: VGTKRYMAPEV
inactive: [1] 0.659 | [2] 0.611 | [3] 0.478 | [4] 0.653 | [5] 0.595 | [6] 0.636

B7: ACVRL1_Y375_E379D (peptide)
chain: VGTKRYMAPDV
inactive: [1] 0.699 | [2] 0.667 | [3] 0.445 | [4] 0.529 | [5] 0.62 | [6] 0.51

B8: ACVRL1_Y375_M376R (peptide)
chain: VGTKRYRAPEV
inactive: [1] 0.465 | [2] 0.432 | [3] 0.466 | [4] 0.517 | [5] 0.391 | [6] 0.479

B9: ACVRL1_Y375_M376V (peptide)
chain: VGTKRYVAPEV
inactive: [1] 0.515 | [2] 0.468 | [3] 0.415 | [4] 0.438 | [5] 0.445 | [6] 0.532

B10: ACVRL1_Y375_R374Q (peptide)
chain: VGTKQYMAPEV
inactive: [1] 0.843 | [2] 0.549 | [3] 0.723 | [4] 0.669 | [5] 0.75 | [6] 0.626

B11: ACVRL1_Y421_F425L_YF (peptide)
chain: GIVEDYRPPLF
inactive: [1] 0.927 | [2] 0.881 | [3] 0.908 | [4] 0.619 | [5] 0.748 | [6] 0.813

B12: ACVRL1_Y421_F425V_YF (peptide)
chain: GIVEDYRPPVF
inactive: [1] 0.977 | [2] 0.772 | [3] 0.996 | [4] 0.781 | [5] 0.789 | [6] 0.98

B13: ACVRL1_Y421_G416S (peptide)
chain: SIVEDYRPPFY
inactive: [1] 0.42 | [2] 0.593 | [3] 0.713 | [4] 0.646 | [5] 0.849 | [6] 1.25

B14: ACVRL1_Y421_P424R (peptide)
chain: GIVEDYRPRFY
inactive: [1] 0.855 | [2] 0.796 | [3] 0.82 | [4] 0.553 | [5] 0.721 | [6] 0.966

B15: ACVRL1_Y421_P424R_YF (peptide)
chain: GIVEDYRPRFF
inactive: [1] 0.667 | [2] 0.649 | [3] 0.589 | [4] 0.458 | [5] 0.691 | [6] 0.735

B16: ACVRL1_Y421_P424T (peptide)
chain: GIVEDYRPTFY
inactive: [1] 0.747 | [2] 0.939 | [3] 0.937 | [4] 0.823 | [5] 0.884 | [6] 0.989

B17: ACVRL1_Y421_Y426C (peptide)
chain: GIVEDYRPPFC
inactive: [1] 0.747 | [2] 0.798 | [3] 0.86 | [4] 0.703 | [5] 0.742 | [6] 0.731

B18: ACVRL1_Y421_YF (peptide)
chain: GIVEDYRPPFF
inactive: [1] 0.961 | [2] 0.708 | [3] 1.02 | [4] 0.67 | [5] 1.06 | [6] 0.937

B19: ADA_Y308 (peptide)
chain: TLDTDYQMTKR
inactive: [1] 0.743 | [2] 0.637 | [3] 0.596 | [4] 0.632 | [5] 0.707 | [6] 0.729

B20: ADA_Y308_L304R (peptide)
chain: TRDTDYQMTKR
inactive: [1] 0.525 | [2] 0.608 | [3] 0.526 | [4] 0.592 | [5] 0.392 | [6] 0.874

B21: ADA2_Y337 (peptide)
chain: HSLHDYKEALM
inactive: [1] 1.1 | [2] 1.23 | [3] 1.32 | [4] 0.845 | [5] 0.834 | [6] 0.928

B22: ADAM12_Y895 (peptide)
chain: RPAPQYPHQVP
inactive: [1] 0.791 | [2] 0.484 | [3] 0.638 | [4] 0.593 | [5] 0.735 | [6] 0.774

B23: ADAMTS16_Y1211 (peptide)
chain: CSHKFYGKQCC
inactive: [1] 1.47 | [2] 1.31 | [3] 1.45 | [4] 1.23 | [5] 1.14 | [6] 1.45

B24: ADAMTS18_Y764_L769I (peptide)
chain: HKANEYYPVVI
inactive: [1] 0.915 | [2] 0.746 | [3] 0.576 | [4] 0.589 | [5] 0.534 | [6] 0.626

B25: ADAMTS18_Y764_L769I_YF (peptide)
chain: HKANEYFPVVI
inactive: [1] 0.971 | [2] 0.855 | [3] 0.681 | [4] 0.84 | [5] 0.802 | [6] 0.928

B26: ADAMTS18_Y764_YF (peptide)
chain: HKANEYFPVVL
inactive: [1] 1.38 | [2] 0.797 | [3] 0.932 | [4] 0.882 | [5] 0.91 | [6] 0.796

B27: ADAMTS18_Y765_L769I (peptide)
chain: KANEYYPVVII
inactive: [1] 0.609 | [2] 0.929 | [3] 0.942 | [4] 0.685 | [5] 0.807 | [6] 0.568

B28: ADAMTS9_Y100 (peptide)
chain: SSQAHYRLSAF
inactive: [1] 0.872 | [2] 0.838 | [3] 0.706 | [4] 0.687 | [5] 0.614 | [6] 0.702

B29: ADAMTS9_Y100_S96T (peptide)
chain: STQAHYRLSAF
inactive: [1] 0.727 | [2] 0.672 | [3] 0.752 | [4] 0.642 | [5] 0.796 | [6] 0.742

B30: ADAMTSL2_Y594_R593C (peptide)
chain: AMCVCYDGVEV
inactive: [1] 1.2 | [2] 1.24 | [3] 0.942 | [4] 1.07 | [5] 0.87 | [6] 1.32

B31: ADAR_Y587 (peptide)
chain: EESSHYSTEKE
inactive: [1] 0.441 | [2] 0.392 | [3] 0.424 | [4] 0.367 | [5] 0.486 | [6] 0.372

B32: ADD2_Y31 (peptide)
chain: EDDPEYMRLRN
inactive: [1] 0.706 | [2] 0.437 | [3] 0.66 | [4] 0.356 | [5] 0.553 | [6] 0.599

B33: ADD2_Y31_D28N (peptide)
chain: EDNPEYMRLRN
inactive: [1] 0.561 | [2] 0.512 | [3] 0.569 | [4] 0.512 | [5] 0.655 | [6] 0.533

B34: ADD2_Y440 (peptide)
chain: NTPNTYLRVNV
inactive: [1] 0.858 | [2] 1.09 | [3] 0.922 | [4] 2.08 | [5] 1.01 | [6] 0.92

B35: ADGRA2_Y377_T375K (peptide)
chain: AGIKAYQSCLQ
inactive: [1] 0.714 | [2] 0.81 | [3] 0.907 | [4] 0.736 | [5] 0.796 | [6] 0.73

B36: ADGRD1_Y183_V184I (peptide)
chain: EGLKVYINGTL
inactive: [1] 0.871 | [2] 1.41 | [3] 0.999 | [4] 1.05 | [5] 0.567 | [6] 1.47

B37: ADGRD1_Y85_Y89D (peptide)
chain: GVTLLYYGRDN
inactive: [1] 1.91 | [2] 1.95 | [3] 1.83 | [4] 1.84 | [5] 2.37 | [6] 1.61
